From PubChem BioAssay AID1745853 (National Center for Advancing Translational Sciences (NCATS), 2022) come the findings set out here.

Common to all, as to experiment: Primary Screen for Target Class Profiling of Small Molecule Inhibitors of Methyltransferases
Test [1] concerns the target Glycine N-methyltransferase (Homo sapiens) (UniProt Q14749). To be noted: purified enzyme, MTase-Glo SAH luminescence; measured here: GNMT inhibition; at 40 µM; stronger effect = lower value. An outline of the steps:
(§1)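 Each enzyme was assayed with SAM and its substrate. SAH formation detected by MTase-Glo luminescence; single-point 40 uM screen[…].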

For test [2], the target named is Guanidinoacetate N-methyltransferase (Homo sapiens) (UniProt Q14353). To be noted: purified enzyme, MTase-Glo SAH luminescence; measured here: GAMT inhibition; at 40 µM; stronger effect = lower value. An outline of the steps: as §1
The target in test [3] is Histamine N-methyltransferase (Homo sapiens) (UniProt P50135). Conditions: purified enzyme, MTase-Glo SAH luminescence; measured here: HNMT inhibition; at 40 µM; stronger effect = lower value. The gist of the method: as §1
The target in test [4] is Nicotinamide N-methyltransferase (Homo sapiens) (UniProt P40261). Conditions: purified enzyme, MTase-Glo SAH luminescence; measured here: NNMT inhibition; at 40 µM; stronger effect = lower value. The gist of the method: as §1
The target in test [5] is Phenylethanolamine N-methyltransferase (Homo sapiens) (UniProt P11086). Conditions: purified enzyme, MTase-Glo SAH luminescence; measured here: PNMT inhibition; at 40 µM; stronger effect = lower value. An outline of the steps:
as §1

Molecules are shown by their SMILES. The list shows a part of the results. These are further read-outs of the screen, such as a control signal, another cell line or another target. No call is given for them.
% is scaled to controls: 0 for no effect and ±100 for the full control effect.

Turning to `CC1CCCCN1CCNC(=O)CCCc1nnc2n3nc(-c4ccccc4)nc3c3ccccc3n12` (stereo not given), the activity change, negative = inhibition in test [1] was -9.43%; in test [2] it was 2.2%; in test [3], -29.3%; in test [4], 2.13%; in test [5], -2.1%.
As for `CC(C)CC(=O)Nc1n[nH]c2c1CN(C(=O)C1CCN(C)CC1)C2(C)C`, the activity change, negative = inhibition was -7.27% in test [1]; -7.89% in test [2]; -37.5% in test [3]; -14.9% in test [4]; -8.32% in test [5].
As for `Cc1cccc(-c2nnc3n(Cc4ccc(F)cc4)c(=O)c4ccccc4n23)c1`, the activity change, negative = inhibition in test [1] was -3.96%; in test [2] it was 1.02%; in test [3], 5.27%; in test [4], -4.69%; in test [5], 1.08%.
Consider `Cc1c[nH]c2ncnc(N3CCC(CN)(C(=O)Nc4cccc(OC(=O)N(C)C)c4)CC3)c12`, for which the activity change, negative = inhibition in test [1] was 1.03%; in test [2], 9.55%; in test [3], -7.83%; in test [4], -51.1%; in test [5], -14.6%.
As to `C=C1[C@H](OC(C)=O)[C@H]2[C@@H](OC(C)=O)[C@](C)(OC(C)=O)C[C@]2(OC(C)=O)C(=O)[C@H](C)/C=C/C(C)(C)C(=O)[C@H](OC(=O)C(C)CC)[C@H]1OC(C)=O` (stereo not given in full), the activity change, negative = inhibition in test [1] is 7.21%; in test [2] it was 6.18%; in test [3], 9.78%; in test [4], -6.93%; in test [5] it was -2.25%.
Take `O=C(CCCc1nnc2n3nc(-c4ccccc4)nc3c3ccccc3n12)NCc1ccc2c(c1)OCO2`: the activity change, negative = inhibition was -4.92% in test [1]; 0% in test [2]; 0.003% in test [3]; 2.85% in test [4]; -3.85% in test [5].
Consider `CC(C)(C)Sc1c(CC(C)(C)C(=O)O)n(Cc2ccc(Cl)cc2)c2ccc(OCc3ccc4ccccc4n3)cc12`, for which the activity change, negative = inhibition is -11.5% in test [1]; -2.79% in test [2]; 5.94% in test [3]; -53.8% in test [4]; -2.44% in test [5].
Regarding `CCOCCCNC(=O)CCc1nnc2n(Cc3ccccc3)c(=O)c3ccccc3n12`, the activity change, negative = inhibition was -7.78% in test [1]; 4.57% in test [2]; 0.984% in test [3]; 10.7% in test [4]; -0.903% in test [5].
On to `CN1CCCC1CCOC(C)(c1ccccc1)c1ccc(Cl)cc1` (stereo not given), for which the activity change, negative = inhibition in test [1] was -3.64%; in test [2], 12.2%; in test [3], -17.8%; in test [4] it was -7.59%; in test [5], 1.1%.
Taken in the same sequence, the figures for `Cc1cc2c(cc3n2CC(C)(C(=O)NC2CCCCCCC2)N(C2CCCC2)C3=O)o1` (stereo not given) were -9.04%, 0.025%, -2.41%, -6.89% and -4.37%.
On to `CC(C)NC(=O)c1ccc2c(=O)n(C3CC3)c3nn(CC(=O)Nc4cc(F)ccc4F)c(=O)n3c2c1`, for which the activity change, negative = inhibition in test [1] came out at 6.3%; in test [2] it was 0%; in test [3], 11.2%; in test [4], 1.92%; in test [5] it was 6.47%.
As for `Cc1ccc(C(=O)Cn2nc3n(C(C)C)c(=O)c4ccc(C(=O)NCC(C)C)cc4n3c2=O)c(C)c1`, the activity change, negative = inhibition in test [1] is 3.62%; in test [2], 2.08%; in test [3] it was 5.29%; in test [4] it was 0.429%; in test [5], 3.48%.
Regarding `CS(=O)(=O)N[C@H]1C[C@H]2C(=O)NC[C@@H](CCC(=O)N3CCCCC3)N2C1`, the activity change, negative = inhibition was -5.97% in test [1]; -7.38% in test [2]; -2.29% in test [3]; -9.13% in test [4]; -14.2% in test [5].
Turning to `CCC1c2ccc(C)n2CCN1C(=O)Nc1cc(Cl)c(OC)cc1OC` (stereo not given), the activity change, negative = inhibition in test [1] was 1.35%; in test [2], -2.19%; in test [3] it was -5.22%; in test [4] it was -4.42%; in test [5], -1.24%.
In the case of `CCN1C(=O)c2cc(C(=O)NCc3ccc(C)cc3)nn2CC1(C)C(=O)NC1CCCC1` (stereo not given), the activity change, negative = inhibition in test [1] was 4.7%; in test [2] it was 0%; in test [3] it was -0.194%; in test [4], 9.14%; in test [5], 3.49%.
For `CSc1ccc(CNC(=O)c2cc3n(n2)CC(C)(C(=O)NCCC(C)C)N(C)C3=O)cc1` (stereo not given), in that order: 3.94%, 0%, 2.6%, 1.98% and 2.51%.
Taken in the same sequence, the figures for `Cc1cccc(-c2noc(CCC(=O)N[C@H]3CC[C@H]3NC3CCCC3)n2)c1` were -4.67%, -6.46%, -11.2%, -14.7% and -4.57%.
Regarding `O=C(c1ccncc1)N1CC(c2nc(CCc3ccccc3)no2)C1`, the activity change, negative = inhibition in test [1] was -5.43%; in test [2] it was -5.9%; in test [3] it was -1.57%; in test [4], -9.47%; in test [5], -9.87%.
Taken in the same sequence, the figures for `CCCn1c(=O)c2ccccc2n2c(=O)n(Cc3ccc(Cl)cc3)nc12` were 0.313%, 3.06%, 6.89%, -25.7% and 2.17%.
On to `COc1cccc(N2CCN(C(=O)CCCc3nnc4n5nc(-c6ccccc6)nc5c5ccccc5n34)CC2)c1`, for which the activity change, negative = inhibition in test [1] is 4.29%; in test [2], 1.93%; in test [3], 5.5%; in test [4], 6.74%; in test [5] it was 0.313%.
As for `COc1ccc(CNC[C@H]2O[C@H](Cc3cc(COc4ccccc4)on3)CC[C@@H]2O)cc1`, the activity change, negative = inhibition in test [1] is -3.38%; in test [2] it was -4.24%; in test [3] it was -5.2%; in test [4], -9.12%; in test [5], 3.87%.
On to `O=C(c1ccc(-c2cncnc2)cc1)N1CCC(N[S+](=O)([O-])c2cccc(C(F)(F)F)c2)CC1`, for which the activity change, negative = inhibition in test [1] is -9.81%; in test [2], -2.94%; in test [3] it was 0.109%; in test [4] it was -11.2%; in test [5], -6.23%.
With `Cc1ccccc1C(=O)Nc1ccc(C(=O)N2CCC[C@@H](O)c3cc(Cl)ccc32)c(C)c1`, the activity change, negative = inhibition was -8.53% in test [1]; -10.7% in test [2]; 1.55% in test [3]; -32.2% in test [4]; -7.63% in test [5].
Taken in the same sequence, the figures for `Cc1cc(C)cc(N2C(=O)c3cc4occc4n3CC2(C)C(=O)NC2CCCCCC2)c1` (stereo not given) were 0.474%, 0.438%, -3.23%, 1.77% and -3.02%.
For `Cc1nc([C@@H]2CN(C(=O)c3cccc(C#N)c3)C[C@H]2C(N)=O)n[nH]1`, in that order: -4.18%, -3.03%, -0.806%, -1.35% and 2.16%.
Turning to `CC(=O)O[C@@H]1c2c(C)coc2C(=O)[C@@]23O[C@@H]2CC[C@H](C)[C@@]13C`, the activity change, negative = inhibition was -4.98% in test [1]; -9.62% in test [2]; 3.72% in test [3]; -25.4% in test [4]; -3.03% in test [5].
Turning to `Cc1ccc(C2Cn3nnc(C(=O)N4CCC(C(=O)NCCc5ccccc5)CC4)c3CO2)cc1` (stereo not given), the activity change, negative = inhibition in test [1] was -1.12%; in test [2], -2.6%; in test [3], -1.83%; in test [4], -1.04%; in test [5], 0.154%.
Taken in the same sequence, the figures for `CN(CCCNC(=O)Cn1ccc2cc(S(=O)(=O)N3CCCCC3)ccc21)Cc1ccccc1` were -2.28%, 0.23%, -29.8%, -7.29% and -5.45%.
`Cc1nn(C)c(C)c1S(=O)(=O)N1CCC(c2noc(C3CC3)n2)C1` (stereo not given): the activity change, negative = inhibition in test [1] is -4.9%; in test [2], -10.7%; in test [3], -1.67%; in test [4], -25.8%; in test [5] it was -2.66%.
`CCC(C)Nc1nc2c(-c3ccc(Cl)cc3)nnn2c2ccccc12` (stereo not given): the activity change, negative = inhibition in test [1] was -0.876%; in test [2], 3.03%; in test [3], -0.298%; in test [4] it was -4.68%; in test [5], -3.69%.
On to `CCC(C)NC(=O)c1ccc2c(=O)n(C(C)C)c3nn(CC(=O)Nc4ccc(C(C)C)cc4)c(=O)n3c2c1` (stereo not given), for which the activity change, negative = inhibition worked out at 4.12% in test [1]; 0.074% in test [2]; 4.66% in test [3]; 0.138% in test [4]; 3.66% in test [5].
For `COCc1nnc(C2CC3(CCN(C(=O)c4cccc(C)c4)CC3)CN2C)o1` (stereo not given), the activity change, negative = inhibition in test [1] is 1.41%; in test [2], 5.34%; in test [3] it was 4.44%; in test [4], -3.72%; in test [5], 20.5%.
Turning to `Cc1ccc(CNC(=O)c2ccc3c(=O)[nH]c4c(C(=O)NC(C)C)sc(=S)n4c3c2)cc1`, the activity change, negative = inhibition in test [1] was 6.06%; in test [2], 0%; in test [3] it was 10.9%; in test [4], -61.1%; in test [5], -12.3%.
Take `CCCSCCCN1C(=O)c2cc(-c3cccs3)nn2CC1(C)C(=O)NC1CCCCC1` (stereo not given): the activity change, negative = inhibition in test [1] is 0.496%; in test [2] it was 0.137%; in test [3], 4.93%; in test [4], 4.17%; in test [5] it was -0.17%.
In the case of `CC1CCCC(NC(=O)Cn2ccc3cc(S(=O)(=O)N4CCCC4)ccc32)C1C` (stereo not given), the activity change, negative = inhibition was -5.68% in test [1]; -3.23% in test [2]; -9.47% in test [3]; -11.7% in test [4]; -11.5% in test [5].
With `C[C@H]1[C@@H]2[C@H]3OC(=O)[C@@H](C)[C@@H]3CC[C@@]2(C)CC[C@@H]1NC(=O)Cc1ccccc1`, the activity change, negative = inhibition in test [1] was -5.72%; in test [2], -2.74%; in test [3], -1.75%; in test [4] it was -3.11%; in test [5] it was -6.26%.
